Drawing on patent US20220162323A1, this text covers IC50 (M), CellTiter-Glo cytotoxicity, NCI-H716 cells, 6 days and Max % Kill, NCI-H716 cells for two molecules.

Bounds are passed on as bounds.

The target of this test is FGFR2c on NCI-H716 cells (human), P21802. In words: cell-based or functional assay.
Sequence of FGFR2c on NCI-H716 cells (human), P21802 (P21802 22-821): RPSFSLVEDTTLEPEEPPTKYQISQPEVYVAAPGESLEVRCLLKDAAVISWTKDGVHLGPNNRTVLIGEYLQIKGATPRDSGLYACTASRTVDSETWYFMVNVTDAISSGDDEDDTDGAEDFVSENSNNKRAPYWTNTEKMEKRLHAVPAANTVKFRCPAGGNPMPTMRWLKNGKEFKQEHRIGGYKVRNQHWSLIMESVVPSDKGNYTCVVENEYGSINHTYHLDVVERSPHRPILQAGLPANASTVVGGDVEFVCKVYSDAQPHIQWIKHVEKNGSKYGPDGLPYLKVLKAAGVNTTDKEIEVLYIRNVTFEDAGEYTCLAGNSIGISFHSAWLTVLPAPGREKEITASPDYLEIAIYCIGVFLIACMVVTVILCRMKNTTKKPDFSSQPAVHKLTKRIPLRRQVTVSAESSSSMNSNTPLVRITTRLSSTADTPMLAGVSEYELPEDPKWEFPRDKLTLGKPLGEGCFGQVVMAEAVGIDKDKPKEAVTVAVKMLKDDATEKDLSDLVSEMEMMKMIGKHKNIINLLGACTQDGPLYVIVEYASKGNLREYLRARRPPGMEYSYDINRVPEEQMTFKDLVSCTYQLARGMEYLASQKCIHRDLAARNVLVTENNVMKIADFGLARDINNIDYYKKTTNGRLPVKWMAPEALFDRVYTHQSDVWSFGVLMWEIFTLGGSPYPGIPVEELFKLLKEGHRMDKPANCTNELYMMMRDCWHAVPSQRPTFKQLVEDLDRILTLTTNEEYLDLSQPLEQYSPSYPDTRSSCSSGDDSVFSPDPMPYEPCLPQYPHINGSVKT

B1: mAb1-tubulysin 1ALP (antibody, human IgG4 S228P, kappa)
heavy: QVQLVESGGGVVQPGRSLRLSCAASGFTFSSYGMHWVRQAPGKGLEWVAVIWYDGSNKYYADSVKGRFTISRDNSKNTLYLQMNSLRAEDTAVYYCAREESSASGVDYWGQGTLVTVSSASTKGPSVFPLAPCSRSTSESTAALGCLVKDYFPEPVTVSWNSGALTSGVHTFPAVLQSSGLYSLSSVVTVPSSSLGTKTYTCNVDHKPSNTKVDKRV[human IgG4 Fc with S228P (EU numbers) omitted]
light: EIVLTQSPGTLSLSPGERATLSCRASQSVSTRYLAWYQQKRGQAPRLLIYGASSRATGIPDRFSGSGSGTDFTLTISRLEPEDFAVYYCQEYGSSSITFGQGTRLEIKRTVAAPSVFIFPPSDEQLKSGTASVVCLLNNFYPREAKVQWKVDNALQSGNSQESVTEQDSKDSTYSLSSTLTLSKADYEKHKVYACEVTHQGLSSPVTKSFNRGEC
modifications: here or on the partner: deglycosylated; Q295 carries azido-PEG3-amine clicked to Tubulysin 1A-LP; DAR 2.1 per antibody
B1 had an IC50 (M), CellTiter-Glo cytotoxicity, NCI-H716 cells, 6 days greater than 2e-08 M and a Max % Kill, NCI-H716 cells of 19.3%.

B2: mAb1-maytansinoid 1ALP (antibody)
heavy: QVQLVESGGGVVQPGRSLRLSCAASGFTFSSYGMHWVRQAPGKGLEWVAVIWYDGSNKYYADSVKGRFTISRDNSKNTLYLQMNSLRAEDTAVYYCAREESSASGVDYWGQGTLVTVSSASTKGPSVFPLAPCSRSTSESTAALGCLVKDYFPEPVTVSWNSGALTSGVHTFPAVLQSSGLYSLSSVVTVPSSSLGTKTYTCNVDHKPSNTKVDKRV[human IgG4 Fc with S228P (EU numbers) omitted]
light: EIVLTQSPGTLSLSPGERATLSCRASQSVSTRYLAWYQQKRGQAPRLLIYGASSRATGIPDRFSGSGSGTDFTLTISRLEPEDFAVYYCQEYGSSSITFGQGTRLEIKRTVAAPSVFIFPPSDEQLKSGTASVVCLLNNFYPREAKVQWKVDNALQSGNSQESVTEQDSKDSTYSLSSTLTLSKADYEKHKVYACEVTHQGLSSPVTKSFNRGEC
modifications: here or on the partner: maytansinoid 1ALP (mc-VC-PAB-NMe-C3-May) linker-payload conjugated; residues not stated in Example 5; DAR 2.5 per antibody
In turn, B2 returned an IC50 (M), CellTiter-Glo cytotoxicity, NCI-H716 cells, 6 days greater than 2e-08 M and a Max % Kill, NCI-H716 cells of 0.5%.
